{"source": "patent US20060281090A1", "about": "(University of Washington, published 2006)", "binders": {"B1": {"name": "recombinant human coagulation factor IX (enzyme)", "chain": "not shown", "notes": "also called FIX; human FIX"}}, "biological_target": "T1, bovine serum albumin (bovine, UniProt P02769)", "T1 construct": "Control protein in the cross-linking assay with FIX; also called BSA", "assay": "BS3 protein cross-linking, Western blot with anti-FIX rabbit polyclonal antibodies", "data": [{"binder": "B1", "values": [{"measurement": "binding result", "result": "no binding (tested: 5, 10, or 20 µg BSA with 10 µg FIX)"}]}]}
